Where a name gives a salt, the structure may show the parent alone. ± gives the standard deviation of the averaged measurements. The full ranking holds about 2,000 compounds; the median of “relative cell viability vs DMSO, compound + 0.2 uM CuET” is about 1, and the lowest 2% start at about 0.25. This is one part of the list.
test system: TE10; assay: relative cell viability vs DMSO, compound + 0.2 uM CuET (fraction); TE10 is an esophageal squamous carcinoma line; higher = less cytotoxic; conditions: 2 µM; co-treatment: CuET (bis(diethyldithiocarbamate)copper) 0.2 uM; 48 h
Method: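 TE10 ESCC cells (1,000/well, 384-well plates) were treated with Selleck bioactive library compounds at 2 uM combined with 0.2 uM CuET (copper diethyldithiocarbamate) for 48 h. Viability was read by CellTiter-Glo and expressed relative to DMSO wells. Two technical replicates (A, B).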

| Compound | relative cell viability |
| --- | --- |
| CCOC(=O)[C@H](CCc1ccccc1)N[C@@H](C)C(=O)N1[C@H](C(=O)O)C[C@@H]2CCC[C@@H]21 [Ramipril] | 1.1 ± 0.12 |
| Cc1ccnc2c1NC(=O)c1cccnc1N2C1CC1 [Nevirapine] | 1.201 ± 0.0018 |
| CN(C)CCC=C1c2ccccc2CCc2ccccc21 [Amitriptyline HCl] | 0.901 ± 0.19 |
| Cc1[nH]c(=O)c(C#N)cc1-c1ccncc1 [Milrinone] | 1.13 ± 0.024 |
| CC(C)[C@H](CO)Nc1nc(Nc2cccc(Cl)c2)c2ncn(C(C)C)c2n1 [Purvalanol A] | 0.761 ± 0.03 |
| CS(=O)(=O)c1ccc(C2=C(c3ccccc3)C(=O)OC2)cc1 [Rofecoxib] | 1.28 ± 0.088 |
| Cn1c(=O)c2[nH]cnc2n(C)c1=O [Aminophylline] | 1.15 ± 0.14 |
| CC(=O)c1cc([N+](=O)[O-])c(Sc2cccc(Cl)c2Cl)s1 | 0.4585 ± 0.0011 |
| O=C(Nc1ccccc1)c1ccccc1O [Salicylanilide] | 1.065 ± 0.0055 |
| CN1C(C(=O)Nc2ccccn2)=C(O)c2sccc2S1(=O)=O [Tenoxicam] | 0.867 ± 0.054 |
| N#Cc1ccc2[nH]cc(CCCCN3CCN(c4ccc5oc(C(N)=O)cc5c4)CC3)c2c1 [Vilazodone HCl] | 0.987 ± 0.054 |
| Cc1ncc([N+](=O)[O-])n1CC(O)CCl (stereo not given) [Ornidazole] | 1.04 ± 0.006 |
| CCc1nc(-c2cccc(C)c2)c(-c2ccnc(NC(=O)c3ccccc3)c2)s1 | 1.03 ± 0.14 |
| Cc1cccc(C)c1NC(=O)C1CCCCN1C (stereo not given) [Mepivacaine HCl] | 0.949 ± 0.12 |
| Cc1c(C(N)=O)cc([N+](=O)[O-])cc1[N+](=O)[O-] [Dinitolmide] | 1.11 ± 0.034 |
| N=C(N)N [Guanidine HCl] | 1.05 ± 0.14 |
| N#CC(=Cc1ccc(O)c(O)c1)C(=O)NCc1ccccc1 [AG-490 (Tyrphostin B42)] | 1.11 ± 0.12 |
| CC1(COc2ccc3c(c2)ncn3-c2ccc3cccc(N4CCC(N)CC4)c3n2)COC1 | 1.41 ± 0.15 |
| COc1ccccc1-c1cc(Nc2cccc(CS(N)(=O)=O)c2)ncn1 | 0.929 ± 0.14 |
| CNCC[C@H](Oc1cccc2ccccc12)c1cccs1 [Duloxetine HCl] | 1.09 ± 0.21 |
| C[C@@H](Oc1cc(-n2cnc3ccc(CN4CCN(C)CC4)cc32)sc1C(N)=O)c1ccccc1C(F)(F)F | 0.912 ± 0.01 |
| C=CC(=O)N1CC(=Cc2ccc([N+](=O)[O-])cc2)C(=O)C(=Cc2ccc([N+](=O)[O-])cc2)C1 | 0.126 ± 0.015 |
| COc1cc2c(cc1OC)CN(CCc1ccc(NC(=O)c3cc(OC)c(OC)cc3NC(=O)c3cnc4ccccc4c3)cc1)CC2 [Tariquidar] | 1.16 ± 0.044 |
| COc1cc(Cc2cnc(N)nc2N)cc(OC)c1OC [Trimethoprim] | 1.13 ± 0.075 |
| CC(C)(Sc1cc(C(C)(C)C)c(O)c(C(C)(C)C)c1)Sc1cc(C(C)(C)C)c(O)c(C(C)(C)C)c1 [Probucol] | 0.986 ± 0.15 |
| Cn1ccnc1S [Methimazole] | 1.06 ± 0.013 |
| Nc1c(Br)cc(Br)cc1CN[C@H]1CC[C@H](O)CC1 [Ambroxol HCl] | 1.21 ± 0.17 |

| Compound | relative cell viability |
| --- | --- |
| CS(=O)(=O)CCNCc1ccc(-c2ccc3ncnc(Nc4ccc(OCc5cccc(F)c5)c(Cl)c4)c3c2)o1 [Lapatinib] | 0.824 ± 0.029 |
| CS(=O)(=O)CCNCc1ccc(-c2ccc3ncnc(Nc4ccc(OCc5cccc(F)c5)c(Cl)c4)c3c2)o1 | 1.14 ± 0.11 |
| C=CC(=O)Nc1cccc(Nc2nc(Nc3ccc(N4CCN(C(C)=O)CC4)cc3OC)ncc2C(F)(F)F)c1 | 0.887 ± 0.011 |
| CC(C)(C)C(=O)OCOP(=O)(COCCn1cnc2c(N)ncnc21)OCOC(=O)C(C)(C)C [Adefovir Dipivoxil] | 1.02 ± 0.035 |
| COc1ccc(CCNCc2ccc(OCc3ccc(Cl)nc3)c(OC)c2)cc1OC | 0.9746 ± 0.0029 |
| COc1cc(OC)c(C(=O)CCCN2CCCC2)c(OC)c1 [Buflomedil HCl] | 1.17 ± 0.035 |
| O=c1ccc2ccc(O)c(O)c2o1 [Daphnetin] | 0.816 ± 0.012 |
| N#CC(c1ccc(Cl)cc1)c1c(Cl)cc(-n2ncc(=O)[nH]c2=O)cc1Cl (stereo not given) [Diclazuril] | 0.797 ± 0.025 |
| O=C(O)CC[C@H]1CC[C@@](c2cc(F)ccc2F)(S(=O)(=O)c2ccc(Cl)cc2)CC1 | 0.915 ± 0.047 |
| CN1CCC(=C2c3ccccc3CC(=O)c3sccc32)CC1 [Ketotifen Fumarate] | 0.938 ± 0.029 |
| COc1ccccc1N1CCN(CC(O)COc2cccc3ccccc23)CC1 (stereo not given) [Naftopidil DiHCl] | 1.23 ± 0.11 |
| COc1ccccc1N1CCN(CC(O)COc2cccc3ccccc23)CC1 (stereo not given) [Naftopidil] | 0.881 ± 0.078 |
| CS(=O)(=O)c1cccc(CNc2nc(Nc3ccc4c(c3)CCC(=O)N4)ncc2C(F)(F)F)c1 | 0.879 ± 0.089 |
| CC(C)(C)n1nc(-c2ccc(Cl)cc2)c2c(N)ncnc21 | 1.02 ± 0.0099 |
| CC1(C)CCC(CN2CCN(c3ccc(C(=O)NS(=O)(=O)c4ccc(NCC5CCOCC5)c([N+](=O)[O-])c4)c(Oc4cnc5[nH]ccc5c4)c3)CC2)=C(c2ccc(Cl)cc2)C1 | 0.959 ± 0.078 |
| CCCCCCCCCCC[C@@H](C[C@@H]1OC(=O)[C@H]1CCCCCC)OC(=O)[C@H](CC(C)C)NC=O [Orlistat] | 0.874 ± 0.047 |
| Cc1ccc(NC(=O)c2ccc(CN3CC[C@H](N(C)C)C3)c(C(F)(F)F)c2)cc1Nc1nccc(-c2cncnc2)n1 [Bafetinib (INNO-406)] | 0.99 ± 0.093 |
| COc1cc(Nc2ncc(F)c(Nc3ccc4c(n3)NC(=O)C(C)(C)O4)n2)cc(OC)c1OC [R406 (free base)] | 0.758 ± 0.13 |
| COc1cc(Nc2ncc(F)c(Nc3ccc4c(n3)NC(=O)C(C)(C)O4)n2)cc(OC)c1OC | 1.01 ± 0.019 |
| CC(C)(Oc1ccc(Cl)cc1)C(=O)O [Clofibric Acid] | 1.1 ± 0.1 |
| O=C(O)CCC(=O)Nc1ccc(Br)cn1 [Bikinin] | 1.06 ± 0.076 |
| COc1ccc(C(=O)Nc2sc3c(c2C(N)=O)CCCC3)cc1OC | 0.979 ± 0.1 |
| O=NO [Sodium Nitrite] | 1.14 ± 0.13 |
| CCC[C@H](Nc1nc(-c2ccc(NC(=O)NCC)c(OC)c2)ncc1C)c1cccnc1 [CYT997 (Lexibulin)] | 0.673 ± 0.047 |
| COC1C(O)CC(=O)OC(C)CC=CC=CC(OC2CCC(N(C)C)C(C)O2)C(C)CC(CC=O)C1OC1OC(C)C(OC2CC(C)(O)C(O)C(C)O2)C(N(C)C)C1O (stereo not given) [Spiramycin] | 1.11 ± 0.0071 |
| COc1cc2ncc(-c3ccccc3)nc2cc1OC [Tyrphostin AG 1296] | 0.947 ± 0.14 |
| CC1CCc2c(N3CCC(O)CC3)c(F)cc3c(=O)c(C(=O)O)cn1c23 (stereo not given) [Nadifloxacin] | 1.28 ± 0.3 |

| Compound | relative cell viability |
| --- | --- |
| Cn1ncc(Cl)c1-c1cc(C(=O)N[C@H](CN)Cc2cccc(F)c2)sc1Cl | 0.76 ± 0.064 |
| NC12CC3CC(CC(C3)C1)C2 [Amantadine HCl] | 1.05 ± 0.029 |
| O=c1c2ccccc2oc2ccccc12 [Xanthone] | 1.1 ± 0.18 |
| CC(C)(C)C[C@@H]1N[C@@H](C(=O)N[C@H]2CC[C@H](O)CC2)[C@H](c2cccc(Cl)c2F)[C@]12C(=O)Nc1cc(Cl)ccc12 | 0.914 ± 0.06 |
| CO[C@H]1O[C@@H]2O[C@@]3(C)CC[C@H]4[C@H](C)CC[C@@H]([C@H]1C)[C@@]24OO3 [Artemether] | 1.045 ± 0.0017 |
| Cc1cc(=O)n(-c2ccccc2)n1C [Antipyrine] | 1.01 ± 0.13 |
| Clc1ccc(COC(Cn2ccnc2)c2ccc(Cl)cc2Cl)c(Cl)c1 (stereo not given) [Miconazole Nitrate] | 0.874 ± 0.038 |
| Clc1ccc(COC(Cn2ccnc2)c2ccc(Cl)cc2Cl)c(Cl)c1 (stereo not given) [Miconazole] | 0.811 ± 0.03 |
| CCCN(CCc1cccs1)[C@H]1CCc2c(O)cccc2C1 [Rotigotine] | 1.05 ± 0.082 |
| CCN(CCO)CCCOc1ccc2c(Nc3cc(CC(=O)Nc4cccc(F)c4)[nH]n3)ncnc2c1 [Barasertib (AZD1152-HQPA)] | 1.25 ± 0.26 |
| C=CC(=O)N1CCC(Oc2cc3c(Nc4ccc(Cl)c(Cl)c4F)ncnc3cc2OC)CC1 [Poziotinib (HM781-36B)] | 1.246 ± 0.0016 |
| CN1CCN(C2=Nc3cc(Cl)ccc3Nc3ccccc32)CC1 [Clozapine] | 1.06 ± 0.055 |
| CO[C@@H](C(=O)N1Cc2[nH]nc(NC(=O)c3ccc(N4CCN(C)CC4)cc3)c2C1)c1ccccc1 | 0.986 ± 0.056 |
| Cc1c(Cc2ccc3ccccc3n2)c2cc(F)ccc2n1CC(=O)O | 1.14 ± 0.16 |
| C[C@@H]1[C@H](O)[C@@H](C)/C=C/C=C/C=C/C=C/C=C/C=C/C=C/[C@H](O[C@@H]2O[C@H](C)[C@@H](O)[C@H](N)[C@@H]2O)C[C@@H]2O[C@](O)(C[C@@H](O)C[C@@H](O)[C@H](O)CC[C@@H](O)C[C@@H](O)CC(=O)O[C@H]1C)C[C@H](O)[C@H]2C(=O)O [Amphotericin B] | 1.13 ± 0.11 |
| CC(C)N(CCCNC(=O)Nc1ccc(C(C)(C)C)cc1)C[C@H]1O[C@@H](n2ccc3c(N)ncnc32)[C@H](O)[C@@H]1O | 1.02 ± 0.1 |
| CCS(=O)(=O)Nc1ccc2[nH]c(O)c(C(=Nc3ccc(CN4CCCCC4)cc3)c3ccccc3)c2c1 [Hesperadin] | 0.5395 ± 0.0028 |
| C[C@]12CC[C@@H]3c4ccc(O)cc4CC[C@H]3[C@@H]1CC[C@@H]2OC(=O)CCC1CCCC1 [Estradiol Cypionate] | 0.938 ± 0.085 |
| Cc1cc(Nc2ccc(NC(=O)c3ccc(Nc4ccnc5ccccc45)cc3)cc2)nc(N)n1 | 0.698 ± 0.00091 |
| CNC(CC(=O)O)C(=O)O [NMDA (N-Methyl-D-aspartic acid)] | 1.06 ± 0.04 |
| Nc1ncn([C@H]2C[C@H](O)[C@@H](CO)O2)c(=O)n1 [Decitabine] | 1.44 ± 0.075 |
| O=C(Cc1ccc(-c2ccc(OCCN3CCOCC3)cc2)cn1)NCc1ccccc1 | 0.827 ± 0.037 |
| O=C(NOCCO)c1ccc2cncn2c1Nc1ccc(I)cc1F | 0.895 ± 0.033 |
| CCOc1cc(C(=O)N2CCC(N3CCN(C)CC3)CC2)ccc1Nc1ncc2c(n1)N(C1CCCC1)c1ccccc1C(=O)N2C | 0.638 ± 0.066 |
| O=c1cc(-c2ccc(O)c(O)c2)oc2cc(O)cc(O)c12 [Luteolin] | 0.997 ± 0.025 |
| CC(C)/N=c1\cc2n(-c3ccc(Cl)cc3)c3ccccc3nc-2cc1Nc1ccc(Cl)cc1 [Clofazimine] | 0.758 ± 0.058 |

From the supplement of paper PMC10670038
